Measured values reported in PubChem BioAssay (NCI).
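Where inhibition never reached the appropriate level, the endpoint shown equals the highest concentration tested. Otherwise, values were interpolated linearly from a five-concentration, 48-hour dose response in 96-well plates. GI50 marks 50% less growth. TGI: total growth inhibition.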

System: NCI-H322M lung
Assay: NCI-60 cell line screen, 48 h

| SMILES | GI50 | TGI |
| --- | --- | --- |
| COc1ccc(/C=C/C(=O)c2cc3c(N)c(C(=O)Nc4ccccc4C)sc3nc2C)cc1 | 2.14 µM | > 50 µM |
| COc1cc(NCC2COc3c(ccc(OC)c3OC)C2=O)c([N+](=O)[O-])cc1OC (stereo unspecified) | – | > 100 µM |
| O=C(O)c1cc(Cc2ccc(O)c(C(=O)O)c2)ccc1O (tested in a mixture with another compound) | 11.4 µM | 23.6 µM |
| CC(C)(Oc1ccc2c(=O)cc(-c3ccccc3)oc2c1)C(=O)Nc1c(Cl)cccc1Cl | – | > 100 µM |
| CC1(C)CC(=O)c2c(nc(SSc3nc4c(c(-c5ccc(Br)cc5)c3C#N)C(=O)CC(C)(C)C4)c(C#N)c2-c2ccc(Br)cc2)C1 | – | > 10 µM |
| COC(=O)C1N=CSCC1(C)O (stereo unspecified) | – | > 100 µM |
| C[C@H](CCC(=O)O)[C@H]1CC[C@H]2[C@@H]3[C@H](O)C[C@@H]4C[C@H](O)CC[C@]4(C)[C@H]3CC[C@]12C | – | > 100 µM |
| O=[N+]([O-])C(=C(Nc1ccccc1)Nc1ccccc1)/C(Cl)=C(\Cl)Br | – | 29.3 µM |
| Oc1c(I)cc(-c2nc3ccccc3s2)cc1CN(Cc1ccccn1)Cc1ccccn1 | 0.395 µM | > 100 µM |
| O=C(O)c1cscc1Cc1cccs1 | – | > 100 µM |
| C/C1=C/C(=O)O[C@@H]2C[C@@H](CC[C@H](C)/C=C\C=C\CC1)O[C@@](OCCc1ccccc1)([C@@H]1CSC(=O)N1)C2 | 1.39 µM | > 17.5 µM |
| O=[N+]([O-])c1ccc(/C=C(/c2ccc([N+](=O)[O-])o2)S(=O)(=O)c2ccccc2)o1 | – | 52.4 µM |
| CCCSc1ccc2[nH]c(N3C(=O)/C(=C/c4cc(OC)c(OC)c(OC)c4)N=C3c3ccccc3)cc2c1 | – | > 37.5 µM |
| CCCC(=O)Oc1ccc2c(C)cc(=O)oc2c1OC(=O)CCC | – | > 100 µM |
| COC(=O)C1(C2CC/C(C)=C/CC/C(C)=C/CC[C@@]3(C)O[C@@H]3C2)CC1 (stereo partly specified) | > 100 µM | > 100 µM |
| O=C1CCCCC(=O)Nc2ccccc2N1 | – | > 100 µM |
| COc1cc(NCc2ccccc2O)c2ncccc2c1 | 20.9 µM | > 100 µM |
| COC1CC(CC2CCC(C)C(C(C)C(=O)O)O2)OC2(OC(C)(C3CCC(C)(C4OC(C5OC(O)(CO)C(C)CC5C)CC4C)O3)CC2C)C1C (stereo unspecified) | – | 23.8 µM |
| Cn1c(=O)cc(NCCc2ccccc2)[nH]c1=O | – | > 100 µM |
| O=C(NCCNCCNC(=O)C(F)(F)F)C(F)(F)F | – | > 100 µM |
| COc1cc2c(cc1OCCCCCCCCN1C(=O)c3cccc4cccc(c34)C1=O)N=C[C@@H]1CCCN1C2=O | – | 69.5 µM |
| c1cc[c]([Sn]([S]c2cccc3cccnc23)([S]c2cccc3cccnc23)[c]2ccccc2)cc1 | 0.303 µM | 1.21 µM |
| Cc1cc(C)n(C(=O)c2nn(-c3ccc(Cl)cc3)cc2O)n1 | 6.17 µM | > 100 µM |
| CC(/C=N\NC(=S)N(C)C)=N/NC(=S)N(C)C | – | > 92.1 µM |

| SMILES | GI50 | TGI |
| --- | --- | --- |
| NC(Cc1ccnnc1)C(=O)O (stereo unspecified) | – | > 100 µM |
| CC(=O)NC(CCCNC(=O)NCCCl)C(=O)NCc1ccccc1 (stereo unspecified) | – | > 100 µM |
| COC(=O)C[C@H](COCc1ccccc1)NC(=O)C[C@H](COCc1ccccc1)NC(=O)OC(C)(C)C | – | 68 µM |
| CC(=O)Oc1ccc(CO)cc1OC(C)=O | – | > 100 µM |
| CCCC(=O)OCC1OC(n2cc(F)c(=O)[nH]c2=O)C(F)C1OC(=O)CCC (stereo unspecified) | – | > 100 µM |
| CC1(C)CCC[C@@]2(C)C1C(=O)[C@@H]1O[C@]1(C)[C@@H]2CO (stereo partly specified) | – | > 100 µM |
| O=C1c2ccccc2C(C2c3ccccc3C(=O)c3cc(Br)ccc32)c2ccc(Br)cc21 (stereo unspecified) | – | > 100 µM |
| COc1cc(C)c(C)c(OC(=O)c2c(C)c(C)c(OC)c(C)c2OC)c1C | – | > 100 µM |
| Cc1nc(Nc2ccccc2)sc1C(=O)NNc1ccc([N+](=O)[O-])cc1[N+](=O)[O-] | – | > 100 µM |
| Brc1ccc2c(c1)C1C(CO2)C(c2ccccc2)=NN1c1ccccc1 (stereo unspecified) | – | > 100 µM |
| Nc1ccc2ccc(NS(=O)(=O)N3CCCCC3)cc2c1 | 1.15 µM | > 100 µM |
| O=C1CCCCCC1CC(Sc1ccccc1)Sc1ccccc1 (stereo unspecified) | – | > 100 µM |
| Cc1ccc2c(c1)O/C(=C\c1ccc([N+](=O)[O-])o1)C2=O | 4.95 µM | 54.5 µM |
| O=C(O)C1(Cc2ccc3c(c2)CCC3)Cc2ccccc2C1=O (stereo unspecified) | – | > 100 µM |
| Cc1ccc(NC(=O)c2[nH]c(SCCN(C)C)nc2-c2ccc(F)cc2)cc1C#Cc1cnc2cccnn12 | 2.07 µM | 4.21 µM |
| C1=C(c2ccccc2)C(c2ccc(OCCN3CCCCC3)cc2)Oc2ccccc21 (stereo unspecified) | 1.65 µM | 3.61 µM |
| O=[N+]([O-])c1ccc2c(c1)nc(Cc1ccc(Cl)cc1)n2C[C@@H]1CCCN2CCCCC12 (stereo partly specified) | – | > 43.6 µM |
| Cc1cnoc1NS(=O)(=O)c1ccc(Nc2nnc(/C=C/c3c(O)ccc4ccccc34)c(=O)n2N)cc1 | – | > 100 µM |
| COC(=O)CCc1cccnc1/C=N/O | – | > 100 µM |
| CC(C)c1cccc(C(=O)NCCN(C)C)c1[N+](=O)[O-] | – | > 100 µM |
| O=C(Nc1ccc(Cl)cc1)c1cc(S(=O)(=O)Nc2nnc(-c3ccccc3)c(-c3ccccc3)n2)c(SCc2ccccc2)cc1Cl | 20.7 µM | 53.6 µM |
| COc1cc2cc(Oc3ccc(NC(=O)Nc4ccc(Cl)c(C(F)(F)F)c4)cc3)c(C)nc2cc1OC | 2.05 µM | 6.28 µM |
| Cc1cc(=O)oc2c3c(ccc12)OC(c1ccc(Br)cc1)CC3=O (stereo unspecified) | – | 35.3 µM |
| CCOC(=O)c1sc2nc(-c3ccccc3)nn2c1CBr | – | 7.36 µM |

| SMILES | GI50 | TGI |
| --- | --- | --- |
| CC(CN1CCN(CC(C)Nc2ccnc3cc(Cl)ccc23)CC1)Nc1ccnc2cc(Cl)ccc12 (stereo unspecified) | – | > 37 µM |
| Cc1cc(=O)[nH]c(/N=C(\N)Nc2ccc(Cl)cc2)n1 | – | > 100 µM |
| O=C(CNc1ncco1)Nc1ccc(S(=O)(=O)c2ccc(NC(=O)CNc3ncco3)cc2)cc1 | 13.4 µM | 27.6 µM |
| CNC(=O)OC1C(O[C@H]2C[C@H]3[C@@H]4CC=C5C[C@@H](O)CC[C@]5(C)[C@H]4CC[C@]3(C)[C@H]2[C@H](C)C(=O)CCC(C)C)OCC(O)C1OC1OCC(O)C(O)C1OC(=O)c1ccc(OC)cc1 (stereo partly specified) | 1.78 µM | 6.25 µM |
| O=[N+]([O-])/C=C\c1c[nH]c2ccc(OCc3ccccc3)cc12 | – | 29 µM |
| O=c1[nH]c(Nc2ccc(Cl)cc2)nc2nc[nH]c12 | – | > 100 µM |
| CC(C)(CC#N)c1cc(CC(C)(C)c2cc(CC(C)(C)c3cc(C(C)(C)C4(C)OCCO4)no3)no2)no1 | – | > 100 µM |
| S=C1N=C(Cl)/C(=C\c2ccco2)N1 | – | > 100 µM |
| CN(/N=C\c1ccc2ccccc2c1)C1=NCCN1 | – | 49.5 µM |
| CC(=O)c1ccc2c(c1)N(CCCN1CCN(CCO)CC1)c1ccccc1C2 | – | 31.8 µM |
| O=c1oc2ccccc2c(O)c1C(c1ccc2c(c1)Cc1ccccc1-2)c1c(O)c2ccccc2oc1=O | – | > 100 µM |
| O=C1CC(c2ccc(Cl)cc2)C2(C(=O)NC(=O)NC2=O)C(c2ccc(Cl)cc2)C1 (stereo unspecified) | – | 60.2 µM |
| CCN(CC)c1ccc2cc(C(=O)Nc3nc(C45CC6CC(CC(C6)C4)C5)cs3)c(=O)oc2c1 | – | > 100 µM |
| COC(=O)/C(=C/c1ccc(OC)cc1)NC(=O)c1ccccc1 | – | > 100 µM |
| Cc1nc2cc(Nc3nc(Nc4ccc(F)cc4)nc(N4CCN(C)CC4)n3)ccc2n1Cc1ccccc1 | 2.19 µM | 4.61 µM |
| CCCCCOC(=O)c1cc2cc(CCl)ccc2oc1=O | – | 33.7 µM |
| CN(C)CCc1ccnc2nc(-c3ccc4ccccc4c3)cn12 | – | > 100 µM |
| CCCCNC(=O)CCN(C(=O)O)S(=O)(=O)c1ccc(NC(=O)c2ccccc2)cc1 | – | > 100 µM |
| COc1cc([C@@H]2c3cc4c(cc3[C@@H](c3c(O)cc(O)c5c3O[C@H](c3ccc(O)c(O)c3)[C@H](OC(=O)c3cc(O)c(O)c(O)c3)C5)[C@H]3COC(=O)[C@H]23)OCO4)cc(OC)c1OC | – | > 100 µM |
| CN(NC(=O)/C(=C\c1ccco1)NC(=O)c1ccccc1)c1cn[nH]c(=O)c1Cl | – | > 100 µM |
| CC(=O)N/N=C1/CC[C@@]2(C)C(=CC[C@H]3C4CCC(C(C)CCCC(C)C)[C@@]4(C)CCC32)C1(C)C (stereo partly specified) | – | > 100 µM |
| CC(C)(C)[Si](C)(C)OCC1C=CC(n2cnc3c(N)ncnc32)O1 (stereo unspecified) | – | > 100 µM |
| COc1cc(C2=NN(c3ccc(S(N)(=O)=O)cc3)C(c3ccc(Cl)cc3)C2)cc(OC)c1OC (stereo unspecified) | 6.06 µM | > 100 µM |
| CCc1cccc(C(C)CC)c1NC(=O)C(=O)C(CC(=O)Nc1ccc(Cl)c(Cl)c1)C(=O)OC (stereo unspecified) | – | > 100 µM |

| SMILES | GI50 | TGI |
| --- | --- | --- |
| CC(C)(C)[Si](C)(C)OCC1OC(n2cnc3c(N)ncnc32)CC1OS(C)(=O)=O (stereo unspecified) | – | > 100 µM |
| CC(=O)/C=C/C1=C(c2cccs2)c2ccccc2CC1 | 36.6 µM | > 100 µM |
| COc1ccc([C@]23CCN(S(=O)(=O)c4ccc(C)cc4)[C@H]2[C@H](CO)C2(CC3)OCC(C)(C)CO2)cc1OC | – | > 100 µM |
| NC(=S)N/N=c1\cc(C(=O)Nc2ccc([N+](=O)[O-])cc2[N+](=O)[O-])oc2ccccc12 | – | > 100 µM |
| CCCCCCCCCCCC(O)=C1C(=O)CC(O)CC1=O (stereo unspecified) | – | > 100 µM |
| CN(C)CC1(Cc2ccccc2)CCC(Cc2ccccc2)C1=O (stereo unspecified) | – | 31.4 µM |
| CC(O)(CNS(=O)(=O)c1ccccc1)c1ccccc1 (stereo unspecified) | – | > 100 µM |
| O=S(=O)(O)c1cc(N=Nc2cc(S(=O)(=O)O)c3cccnc3c2O)ccc1/C=C/c1ccc(N=Nc2cc(S(=O)(=O)O)c3cccnc3c2O)cc1S(=O)(=O)O | – | > 100 µM |
| O=S(=O)(O)/C(=C\c1ccccc1)c1ccccc1 (tested in a mixture with another compound) | – | > 100 µM |
| Cc1ccc(CC(Cc2ccc(C)cc2C(=O)O)C(=O)O)cc1 (stereo unspecified) | – | > 100 µM |
| O=C(Nc1ccccc1O)c1ccc(CNC(=O)c2sccc2Nc2ccnc(C(F)(F)F)c2)cc1 | 9.49 µM | 69.5 µM |
| CCCCCCCCCCCCCCCC(=O)OC(COC(C)=O)CO[P+](=O)O (stereo unspecified) | – | > 100 µM |
| COc1ccc2c(c1)cn1c3ccc(O)cc3[nH]c(=O)c21 | 0.539 µM | 9.84 µM |
| COC(CN(C=O)[C@@H](c1ccc(Cl)cc1)c1cc2ccccc2o1)OC | – | 30.9 µM |
| COc1ccc(/C=C(/C)[N+](=O)[O-])cc1 | – | 8.66 µM |
| BrC1=CC=C2NCCCCCCN=C3C=CC(Br)=CC=C3NCCCCCCN=C2C=C1 | – | > 25.5 µM |
| Cc1cc(C)cc(Nc2ccc([N+](=O)[O-])c(NCCN3CCOCC3)n2)c1 | – | > 100 µM |
| Nc1ccc(-c2nc3cc(F)ccc3s2)cc1CO | – | > 66.5 µM |
| CCSC1=N/C(=C/c2ccccc2O)C(=O)N1 | – | > 100 µM |
| O=[N+]([O-])[O-].O=[N+]([O-])[O-].[Au].[Au].c1ccc([P-]c2ccccc2)cc1.c1ccc([P-]c2ccccc2)cc1 | > 100 µM | > 100 µM |
| COc1ccc(CCNC(=O)CCc2ccccc2CO)cc1OC | – | > 100 µM |
| CC(C(=O)c1ccc(Cl)cc1)C1OC(=O)C(Cl)=C1Cl (stereo unspecified) | – | > 100 µM |
